The supplement of paper PMC6609913
Counter-ions that a name gives are not always drawn. ± gives the standard deviation of the averaged measurements. Whole data set: some 1,300 compounds, median “normalised cell viability” near 1, cut for the lowest 2% near 0.14. The list shows a part of the results.

Test system: V-C8 (BRCA2-deficient hamster cells)
Assay: normalised cell viability (fraction of plate median); higher = more viable cells (less toxic)
Settings: 5 µM
How it was run: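 Library drugs, held as 10 mM stocks in DMSO, were diluted to 5 μM in 100 μl medium and added to 96-well plates of V-C8 hamster cells, either lacking BRCA2 or with BRCA2 restored, 24 h after seeding. Plates ran for 3 days (screen 1) or 6 days (screen 2), alongside solvent-only wells. Viability came from a resazurin readout, median-plate normalised, as the mean of triplicate wells.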

Row | SMILES | normalised cell viability (treatment time: 3 days) | normalised cell viability (treatment time: 6 days)
1 | NS(=O)(=O)c1cc2c(cc1Cl)N=C(CSCc1ccccc1)NS2(=O)=O [Benzthiazide] | 1.01 ± 0.05 | 1.04 ± 0.11
2 | O=C1C(CC[S+]([O-])c2ccccc2)C(=O)N(c2ccccc2)N1c1ccccc1 (stereo not drawn) [Sulfinpyrazone] | 1.02 ± 0.027 | 0.957 ± 0.16
3 | C[C@]12C=CC(=O)C=C1CC[C@@H]1[C@@H]2[C@@H](O)C[C@@]2(C)[C@H]1CC[C@]2(O)C(=O)CO [Prednisolone] | 1.05 ± 0.076 | 1.02 ± 0.057
4 | O=c1[nH]cc(F)c(=O)[nH]1 [5-fluorouracil] | 0.499 ± 0.029 | 0.467 ± 0.0059
5 | CS(=O)(=O)c1ccc([C@@H](O)[C@@H](CO)NC(=O)C(Cl)Cl)cc1 [Thiamphenicol] | 0.72 ± 0.043 | 0.74 ± 0.0092
6 | CC(C)Cc1ccc([C@H](C)C(=O)O)cc1 [S-(+)-ibuprofen] | 1.03 ± 0.068 | 0.858 ± 0.15
7 | CC(=O)Oc1cc(C(F)(F)F)ccc1C(=O)O [Triflusal] | 1.04 ± 0.056 | 1.06 ± 0.075
8 | C[C@@H](c1ncncc1F)[C@](O)(Cn1cncn1)c1ccc(F)cc1F [Voriconazole] | 1.16 ± 0.088 | 1.01 ± 0.034
9 | O=C(O)Cc1ccccc1Nc1c(Cl)cccc1Cl [Diclofenac sodium] | 1.13 ± 0.069 | 1.04 ± 0.042
10 | CN1CCN(CCCN2c3ccccc3Sc3ccc(S(=O)(=O)N(C)C)cc32)CC1 [Thioproperazine dimesylate] | 0.91 ± 0.086 | 0.901 ± 0.04
11 | CC(=O)OCC(=O)[C@@]1(O)CC[C@H]2[C@@H]3CCC4=CC(=O)C=C[C@]4(C)[C@@]3(F)[C@@H](O)C[C@@]21C [Isoflupredone acetate] | 1.01 ± 0.027 | 0.968 ± 0.031
12 | C#C[C@]1(O)CC[C@H]2[C@@H]3[C@H](C)CC4=C(CCC(=O)C4)[C@H]3CC[C@@]21C [Tibolone] | 0.998 ± 0.097 | 0.929 ± 0.13
13 | CN(C)CCCOc1nn(Cc2ccccc2)c2ccccc12 [Benzydamine hydrochloride] | 1.35 ± 0.032 | 1.24 ± 0.19
14 | Nc1ccc(S(=O)(=O)Nc2ccc(Cl)nn2)cc1 [Sulfachloropyridazine] | 0.93 ± 0.051 | 0.9 ± 0.072
15 | COc1cc2nc(N3CCN(C(=O)C4CCCO4)CC3)nc(N)c2cc1OC (stereo not drawn) [Terazosin hydrochloride] | 1.002 ± 0.0071 | 1.09 ± 0.025
16 | O=c1[nH]c(=O)n([C@H]2C[C@H](O)[C@@H](CO)O2)cc1F [Floxuridine] | 0.208 ± 0.0077 | 0.251 ± 0.018
17 | CNNCc1ccc(C(=O)NC(C)C)cc1 [Procarbazine hydrochloride] | 0.998 ± 0.16 | 0.9631 ± 0.0049

Row | SMILES | normalised cell viability (treatment time: 3 days) | normalised cell viability (treatment time: 6 days)
18 | C[N+]1(C)CCC(=C(c2ccccc2)c2ccccc2)CC1 [Diphemanil methylsulfate] | 0.966 ± 0.024 | 1.01 ± 0.052
19 | NS(=O)(=O)c1cc2c(cc1Cl)NCNS2(=O)=O [Hydrochlorothiazide] | 1.02 ± 0.013 | 0.999 ± 0.031
20 | CN(C)CCC=C1c2ccccc2C=Cc2ccccc21 [Cyclobenzaprine hydrochloride] | 1.03 ± 0.041 | 1.18 ± 0.3
21 | CC(C)OC(=O)CCC/C=C\C[C@@H]1[C@@H](CC[C@@H](O)CCc2ccccc2)[C@H](O)C[C@@H]1O [Latanoprost] | 1.13 ± 0.11 | 1.05 ± 0.041
22 | COc1cc(C)c(/C=C/C(C)=C/C=C/C(C)=C/C(=O)O)c(C)c1C [Acitretin] | 0.943 ± 0.052 | 0.999 ± 0.015
23 | CC(c1cc2ccccc2s1)N(O)C(N)=O (stereo not drawn) [Zileuton] | 1.042 ± 0.0058 | 1.04 ± 0.032
24 | CC(=O)Oc1cc(C(C)C)c(OCCN(C)C)cc1C [Moxisylyte hydrochoride] | 1.129 ± 0.011 | 1.06 ± 0.089
25 | CC[C@]12CCCN3CCc4c(n(c5ccccc45)C(=O)C1)[C@@H]32 [Eburnamonine (-)] | 0.362 ± 0.016 | 0.643 ± 0.11
26 | CCn1cc(C(=O)O)c(=O)c2cc(F)c(N3CCN(C)CC3)cc21 [Pefloxacine] | 0.981 ± 0.064 | 1.02 ± 0.028
27 | C[C@@H]1CN(c2c(F)c(N)c3c(=O)c(C(=O)O)cn(C4CC4)c3c2F)C[C@H](C)N1 [Sparfloxacin] | 0.9 ± 0.016 | 0.941 ± 0.016
28 | C[C@]12C=CC(=O)C=C1CC[C@@H]1[C@@H]2C(=O)C[C@@]2(C)[C@H]1CC[C@]2(O)C(=O)CO [Prednisone] | 0.899 ± 0.052 | 1.03 ± 0.048
29 | CNC(=C[N+](=O)[O-])NCCSCc1csc(CN(C)C)n1 [Nizatidine] | 1.05 ± 0.023 | 1.07 ± 0.032
30 | CCn1cc(C(=O)O)c(=O)c2cc(F)c(N3CCNC(C)C3)c(F)c21 (stereo not drawn) [Lomefloxacin hydrochloride] | 0.996 ± 0.095 | 0.923 ± 0.12
31 | CS(=O)(=O)Nc1ccc([N+](=O)[O-])cc1Oc1ccccc1 [Nimesulide] | 1.06 ± 0.046 | 1.03 ± 0.037
32 | COc1cc(C)nc(-n2nc(C)cc2OC)n1 [Epirizole] | 1.05 ± 0.059 | 0.97 ± 0.037
33 | CCc1c2c(nc3ccc(OC(=O)N4CCC(N5CCCCC5)CC4)cc13)-c1cc3c(c(=O)n1C2)COC(=O)[C@]3(O)CC [Irinotecan Hydrochloride] | 0.147 ± 0.013 | 0.18 ± 0.0066
34 | CNCCC=C1c2ccccc2CCc2ccccc21 [Nortriptyline hydrochloride] | 0.77 ± 0.082 | 0.786 ± 0.052
